Measured values taken from PubChem BioAssay AID1466 (National Center for Advancing Translational Sciences (NCATS), 2008).
Among all 200,000 compounds or so, about 10 (0.005%) were called active. Inconclusive means that the source gave no clear call. Such entries were picked first, then a sample of the others. The call rests on the fitted dose curve; in most records, active means well fitted inhibition curve with a large enough effect; inconclusive means small, poorly fitted or top-dose-only effect, or effect the other way, or another doubt; inactive means no such curve, though single readings can be large or run the other way. Where the call is inconclusive, the potency comes from a doubtful curve fit.

Biological target: Lysosomal alpha-glucosidase (Homo sapiens) (UniProt P10253)
Test: qHTS Assay for Inhibitors of Human alpha-Glucosidase as a Potential Chaperone Treatment of Pompe Disease;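 on activity change, negative = inhibition: plate controls were uninhibited enzyme wells for no effect and no-enzyme background for full effect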
Settings: purified human GAA, 4-MU-alpha-glucoside fluorescence; activity change, negative = inhibition: at 76.9 µM (top of the series) unless noted
How it was run: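 Human enzyme at 4 nM with 400 uM 4-methylumbelliferyl-alpha-D-pyranoside, citrate/phosphate buffer pH 5.0, 0.005% Tween-20, 20 min at room temperature. Compounds up to 77 uM. 4-MU fluorescence (Ex 365/Em 440) read after NaOH/glycine stop; AC50 from Hill fit.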
Potency means the concentration at half of the fitted maximal effect; tags describe the fitted curve by direction and shape.

Potency, inactive:
O=C(OCCNc1nc(-c2ccccc2)nc2ccccc12)c1ccncc1
Cc1cc(C)n2c(Nc3ccc4c(c3)OCCO4)c(-c3ccc(C)o3)nc2n1
O=S(=O)(Nc1cc(Sc2ncn[nH]2)c(O)c2ccccc12)c1ccccc1
Cc1ccc[n+](/C(C(=S)NCc2ccco2)=C(/[O-])c2ccccc2Cl)c1
Cc1ccc(NC(=S)NNc2ccc([N+](=O)[O-])cc2S(=O)(=O)Nc2ccccc2C(=O)O)cc1C

Potency, inconclusive:
OCCN(Cc1ccccc1)CC(O)COc1ccc(-c2ccccc2)cc1 (stereo unspecified) 28.2 µM [inhibitor, single point]
CCCCn1c(NC(=O)c2ccco2)c(S(=O)(=O)c2ccc(C)cc2)c2nc3ccccc3nc21 17.8 µM [activator, partial curve]
O=C(CCc1nc(-c2ccccc2F)no1)NCCc1ccccc1Cl 44.7 µM [inhibitor, partial curve]
COc1ccc(Cn2c(/C=C/c3ccccc3)nc3ccccc32)cc1 44.7 µM [activator, partial curve]
O=S(=O)(c1ccc(N2CCN(CCO)CC2)nc1)N1CCCCC1 35.5 µM [inhibitor, single point]
CCn1c(=O)c(C(=O)CN2CCN(S(=O)(=O)c3ccc(C)cc3C)CC2)c(N)n(Cc2ccccc2)c1=O 39.8 µM [inhibitor, single point]
COc1ccc(C(=O)NCc2ccc(-c3nc4ccccc4s3)cc2)cc1 39.8 µM [inhibitor, single point]
CCN(CC)CCNC(=O)c1ccc(NC2=NC3CS(=O)(=O)CC3S2)cc1 (stereo unspecified) 22.4 µM [inhibitor, partial curve]
COCCCNC(=O)CC(NS(=O)(=O)c1ccc(C)cc1)c1ccco1 (stereo unspecified) 0.178 µM [inhibitor, full curve, poor fit]
Cn1c(=O)c([N+](=O)[O-])c(NCCc2ccccc2)c2ccccc21 50.1 µM [inhibitor, single point]
CCC(=O)NC(c1ccc(OC)cc1)c1c(O)ccc2ccccc12 (stereo unspecified) 39.8 µM [activator, partial curve, poor fit]
N#CCCN1CCN(C(CNS(=O)(=O)c2ccc(Cl)cc2)c2ccccc2)CC1 (stereo unspecified) 7.08 µM [inhibitor, single point]
O=C(COc1ccc2oc(-c3ccco3)cc(=O)c2c1)N1CCCCC1 3.55 µM [activator, partial curve, poor fit]
O=C(Nc1ccc2c(c1)C(=O)N(CC1CCCO1)C2=O)c1cccc(Br)c1 (stereo unspecified) 56.2 µM [inhibitor, single point]
Cc1ccc(Cn2nnnc2CN2CCC(c3nc4ccc(Cl)cc4[nH]3)CC2)cc1 50.1 µM [inhibitor, single point]
O=C(NCc1ccco1)C1CC(c2c(Cl)cccc2Cl)=NO1 (stereo unspecified) 0.178 µM [inhibitor, full curve, poor fit]
CC(C)(C)c1ccc(CN(Cc2ccccc2)C(c2ccccn2)c2nnnn2C(C)(C)C)cc1 (stereo unspecified) 56.2 µM [inhibitor, single point]
O=C(Nc1ccccc1F)c1coc(=O)c(Br)c1 20 µM [activator, partial curve]
COc1ccc(C(NC(=O)C(C)C)c2c(O)ccc3ccccc23)cc1 (stereo unspecified) 35.5 µM [activator, partial curve]
COc1ccc(/C=N/n2c(=O)[nH]c3c([nH]c4ccc(F)cc43)c2=O)cc1CN1CCCCC1 39.8 µM [activator, single point]
COc1ccccc1-c1nnc2sc(-c3ccc(N(C)C)cc3)nn12 31.6 µM [activator, single point]
Cn1c(=O)c2c(nc(SCCN3CCOCC3)n2Cc2cccc3ccccc23)n(C)c1=O 50.1 µM [inhibitor, single point]
C=CCNC(=S)N/N=C/c1cn(-c2ccccc2)nc1-c1ccc(OC)cc1 2.24 µM [inhibitor, full curve]
O=C1NC(c2ccco2)Nc2sc3c(c21)CCN(Cc1ccccc1)C3 (stereo unspecified) 35.5 µM [activator, partial curve]
O=C(c1cc2c(=O)n3ccccc3nc2s1)N1CCOCC1 8.91 µM [activator, partial curve]
CC(C)(C)c1ccc(/C=N/Nc2cccc(C(=O)O)c2)cc1 11.2 µM [inhibitor, single point]
Cc1c(C)c2cc(Cl)c(O)c(CN3CCCC(C)C3)c2oc1=O (stereo unspecified) 50.1 µM [activator, single point]

Activity change, negative = inhibition, inconclusive:
O=C(COc1ccc(-c2ccccc2)cc1)N1CCN(C(=O)c2cccs2)CC1 4.95% [activator]
Cc1ccc(N2CC(C(=O)Nc3ccc(S(=O)(=O)N4CCOCC4)cc3)CC2=O)cc1 (stereo unspecified) -15.1% [inhibitor]
COc1ccc([N+](=O)[O-])cc1N(CC(O)CN(CC(C)C)CC(C)C)S(=O)(=O)c1ccccc1 (stereo unspecified) -17% [inhibitor]
CCN(CC)CCOC(=O)c1ccc(NC(=O)c2cccc(C)c2[N+](=O)[O-])cc1 -15% [inhibitor]
O=C(c1ccc(F)cc1)N1CCC(n2nnc3ccccc32)CC1 6.44% [activator]
CCn1c(=O)[nH]c2cc(C(=O)N3CCN(c4ccccc4)CC3)ccc2c1=O -17.7% [inhibitor]
CC(C)=CC(=O)OCC(=O)Nc1cccc([N+](=O)[O-])c1 -15.9% [inhibitor]
CCOC(=O)CNC(=O)CSc1nc(N)cc(N)n1 -17.1% [inhibitor]
O=c1oc2ccc3ccccc3c2cc1-c1nnc(-c2ccccc2)o1 16.2% [activator]
